# Measured values from paper PMC4336329 (PLoS ONE, 2015).
# Hit rate of the full screen: of about 310,000 compounds, about 2,200 (0.71%) showed an effect of 50% or more. Effects have a minus sign here. The list shows a part of the results.
# Target: human ether-à-go-go-related gene (hERG) potassium channel (human, UniProt Q12809)
# Test: primary screen, population patch clamp on CHO cells stably expressing hERG
# Sequence of human ether-à-go-go-related gene (hERG) potassium channel (Q12809 whole entry, looked up): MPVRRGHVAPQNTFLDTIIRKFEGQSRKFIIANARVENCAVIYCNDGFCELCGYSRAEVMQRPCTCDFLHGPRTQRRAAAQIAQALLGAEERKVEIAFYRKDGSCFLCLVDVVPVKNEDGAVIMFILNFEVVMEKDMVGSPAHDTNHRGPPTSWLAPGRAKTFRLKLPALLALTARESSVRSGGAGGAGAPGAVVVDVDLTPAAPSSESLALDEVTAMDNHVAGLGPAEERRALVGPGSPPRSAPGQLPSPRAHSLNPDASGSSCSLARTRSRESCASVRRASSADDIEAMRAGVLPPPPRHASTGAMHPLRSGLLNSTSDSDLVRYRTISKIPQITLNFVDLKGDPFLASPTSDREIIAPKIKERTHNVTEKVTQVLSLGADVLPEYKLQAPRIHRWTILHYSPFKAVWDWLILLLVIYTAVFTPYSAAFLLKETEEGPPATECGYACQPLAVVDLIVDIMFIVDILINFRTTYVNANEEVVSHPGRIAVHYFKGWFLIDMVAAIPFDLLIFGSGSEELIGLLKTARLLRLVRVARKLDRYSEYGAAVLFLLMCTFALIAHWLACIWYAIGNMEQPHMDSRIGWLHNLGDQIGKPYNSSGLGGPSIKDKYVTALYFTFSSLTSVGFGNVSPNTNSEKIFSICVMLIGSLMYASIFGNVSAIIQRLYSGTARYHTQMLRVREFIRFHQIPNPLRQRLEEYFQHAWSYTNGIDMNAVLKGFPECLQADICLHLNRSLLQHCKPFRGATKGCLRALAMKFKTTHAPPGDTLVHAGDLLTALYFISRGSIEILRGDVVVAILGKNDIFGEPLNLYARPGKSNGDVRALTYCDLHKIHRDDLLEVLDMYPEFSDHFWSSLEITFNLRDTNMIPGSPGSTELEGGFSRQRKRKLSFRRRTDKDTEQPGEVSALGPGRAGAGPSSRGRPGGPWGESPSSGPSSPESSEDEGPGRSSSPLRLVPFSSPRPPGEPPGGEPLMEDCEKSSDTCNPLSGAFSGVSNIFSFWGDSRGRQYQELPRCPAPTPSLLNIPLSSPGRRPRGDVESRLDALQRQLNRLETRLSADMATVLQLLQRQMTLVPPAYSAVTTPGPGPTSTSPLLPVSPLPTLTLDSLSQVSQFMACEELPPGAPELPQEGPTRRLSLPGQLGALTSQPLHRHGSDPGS
row,Structure (SMILES),"hERG current change (%, negative = inhibition) at 1uM [%]"
1,CCc1ccc(NC(=S)Nn2cnnc2)cc1,12.6
2,NC(=O)COC(=O)CC(NC(N)=O)c1ccc(Cl)cc1 (stereo not shown),16
3,OC(COc1ccc(F)cc1Cl)CN1CCc2ccccc2C1 (stereo not shown),-10.6
4,O=C(NCCc1ccccc1)c1ccc(CS(=O)(=O)c2ccc(Br)cc2)o1,10.1
5,CCOC(=O)c1c(NC(=O)CC)sc2c1CCN(Cc1ccccc1)C2.Cl,11.9
6,Cc1c(C(=O)Nc2ccccc2Cl)oc2ccc(S(=O)(=O)N3CCC4(CC3)OCCO4)cc12,4.25
7,CCN(C(=O)CN1C(=O)S/C(=C\c2cccc(OC)c2)C1=O)C1CCS(=O)(=O)C1 (stereo not shown),-3.31
8,O=C(NCc1cccnc1)Nc1ccc(Cl)cc1Cl,4.27
9,CN(C)c1nc(OCC(=O)NC(C)(C)C)nc(N(C)C)n1,8.97
10,COc1nc(NCC(C)C)nc(Oc2ccc(=O)n(-c3ccccc3)n2)n1,8.4
11,Cl.Clc1ccc(COc2cccc(CNCc3ccncc3)c2)cc1,-14.5
12,CC1CC(C)CN(CCCNC(=O)c2ccc3c(c2)NC(=O)C(N2CCCCC2)S3)C1 (stereo not shown),2.06
13,Cn1ccnc1C(=O)c1ccccc1Cl,11.6
14,COc1ccccc1CN(C)C(=O)C1COc2ccccc2O1 (stereo not shown),12.5
15,CC1(C)C[C@H](O)[C@@]23C[C@@H](OC2=O)[C@]2(C)C(=CCC4[C@@]5(C)CC[C@H](O)C(C)(C)C5CC[C@]42C)[C@@H]3C1 (stereo partly shown),17.7
16,CC(=O)c1ccc(NC(=O)Nc2ccc3c(c2)nc(C)n3C)cc1,-7.58
17,CC(CNc1ccc([N+](=O)[O-])c2cccnc12)Nc1c([N+](=O)[O-])cc(C(F)(F)F)cc1[N+](=O)[O-] (stereo not shown),13.4
18,CC(C)(C)c1ccc(OCC(=O)Nc2ccncc2)c(Br)c1,17.4
19,CC(C)c1ccc(NC(=O)C2CCN(S(C)(=O)=O)CC2)cc1,7.04
20,COc1ccc(OC)c(S(=O)(=O)Nc2cc(C)on2)c1,13
21,COc1cc(S(=O)(=O)N2CCOCC2)ccc1NC(=O)COc1ccc(N(C)S(=O)(=O)c2ccc(C)cc2)cc1,13.1
22,CCn1c(SCc2ccc(C(=O)O)cc2)nnc1-c1ccc(Cl)cc1,21

row,Structure (SMILES),"hERG current change (%, negative = inhibition) at 1uM [%]"
1,CCN(CC)S(=O)(=O)c1ccc2c(c1)c(=O)c(C(=O)N1CCN(c3ccccc3)CC1)cn2C,-5.24
2,Cn1c(NC(=O)c2cccs2)c(-c2cccs2)c(=O)c2ccccc21,4.65
3,COc1ccc(C(=O)C2CCCN(Cc3ccc(C#CCCO)cc3)C2)c(OC)c1 (stereo not shown),-8.86
4,Cc1cc(=O)oc2cc(OCC(=O)Nc3c(Cl)cccc3C(F)(F)F)ccc12,2.47
5,Cc1[nH]c2ccc(-c3nnc(SCC(=O)N4CCCc5ccccc54)o3)cc2c1C,7.95
6,Cc1ccc(OCC(O)Cn2c(=N)n(CCN3CCOCC3)c3ccccc32)cc1.Cl (stereo not shown),-9.7
7,O=C(Cc1ccccc1)N1CCC(c2nc(-c3ccc(F)cc3)no2)CC1,-7.26
8,O=C1CC(NS(=O)(=O)c2cccs2)CN1c1ccc(Cl)cc1 (stereo not shown),13.2
9,O=C1CC(=O)Nc2cc(S(=O)(=O)Nc3cccc(C(F)(F)F)c3)ccc2N1,5.53
10,CCOc1ccc(-n2c(O)c(/C=N/c3ccnn3Cc3ccncc3)c3ccccc3c2=O)cc1,15
11,Nc1nonc1-n1nnc(C(=O)N/N=C/c2cccc(F)c2)c1-c1ccccc1,-15
12,CC(C)Oc1ccc(/C=N/NC(=O)C2CCCN2S(=O)(=O)c2ccc(Cl)cc2)cc1 (stereo not shown),7.16
13,C[C@@H](C(=O)NCCc1ccc(F)cc1)N1C(=O)N2CCc3c([nH]c4ccccc34)[C@@]2(C)C1=O,4.48
14,O=C(CCNC(=O)c1ccccc1Cl)NCCC1=CCCCC1,16.1
15,CCN1/C(=C2\OC(=S)N(C)C2=O)C=Cc2ccccc21,18.4
16,CCOC(=O)C1=C(C)NC(C)=C(C(=O)OCC)C1C(=O)OCC(=O)N1CCc2ccccc21,8.58
17,CCCSc1nc(N)cc(=O)[nH]1,16.3
18,CCOc1cccc(C(=O)Nc2ccccc2N2CCN(C(=O)C(C)C)CC2)c1,-45.1
19,CCN1C(=O)/C(=C\c2ccco2)C(C(=O)OC)=C1C,7.16
20,OC1CCCN(Cc2c3ccccc3cc3ccccc23)C1 (stereo not shown),7.11
21,CC1CC(C#N)N(N(C)C)C1=C(C#N)C#N (stereo not shown),17.5
